In the supplement of paper PMC4967469 one finds AUC and IC50 data, which are given here for 50 cell lines.

pIC50: −log10 of the molar value. IC50 is the fitted dose that halves viability relative to control wells, and lower means more sensitive; fits outside the tested doses are given as limits. AUC, from the same fit, is the share of area under the viability curve across the 256-fold dose range; it is 1 without any effect and falls as sensitivity rises. The top dose, if marked as inferred, was calculated from the reported fits. Some results are limits rather than exact numbers.

Compound in the test: CCOc1cc2ncc(C#N)c(Nc3ccc(F)c(Cl)c3)c2cc1NC(=O)/C=C/CN(C)C [EKB-569]
In words: Viability of human cancer cell lines after 72 h of drug (GDSC screen). Particulars: top dose inferred. How it is done:
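Human cancer cell lines in 384-well plates, medium with 10% serum, drug for 72 h over a 256-fold dose range (nine 2-fold or five 4-fold steps up to the top dose). Adherent lines were fixed and stained with the nucleic acid dye Syto60, suspension lines read with resazurin; signal relative to control wells, capped at 0 and 100%. One two-parameter sigmoid per drug and line, fitted in a mixed model over all curves with the slope shared within a line.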
For the cell line “SU-DHL-16 (B-cell lymphoma, suspension, top dose 2.5 µM)”, the AUC turned out to be 0.483 and the pIC50 was 6.85.
On the same counts, the results for “KMRC-20 (kidney, adherent, top dose 2.5 µM)” are 0.982 and less than 5.60.
Turning to “LU-139 (small cell lung carcinoma, suspension, top dose 2.5 µM)”, the AUC was determined as 0.954 and the pIC50 is less than 5.60.
Take “SW1271 (small cell lung carcinoma, adherent, top dose 2.5 µM)”: the AUC was 0.893 and the negative-log IC50 (pIC50) was less than 5.60.
On the same counts, the results for “FU97 (stomach, adherent, top dose 2.5 µM)” are 0.958 and less than 5.60.
In the same order, the values of “NCI-H2122 (lung adenocarcinoma, adherent, top dose 20 µM)” are 0.89 and less than 4.70.
On to “LS-180 (large intestine, adherent, top dose 2.5 µM)”, for which the AUC worked out at 0.875 and the pIC50 was less than 5.60.
In the same order, the values of “MFH-ino (soft tissue, adherent, top dose 2.5 µM)” are 0.969 and less than 5.60.
In the same order, the values of “WM-115 (melanoma, adherent, top dose 2.5 µM)” are 0.853 and less than 5.60.
For the cell line “CAL-33 (head and neck, adherent, top dose 2.5 µM)”, the AUC came out at 0.709 and the pIC50 is 6.22.
In the same order, the values of “OAW-42 (ovary, adherent, top dose 2.5 µM)” are 0.934 and less than 5.60.
On the same counts, the results for “SW1417 (large intestine, adherent, top dose 2.5 µM)” are 0.967 and less than 5.60.
“MZ1-PC (pancreas, adherent, top dose 2.5 µM)”: the AUC is 0.616 and the pIC50 is 6.45.
With H4 (glioma, adherent, top dose 2.5 µM), the AUC is 0.914 and the pIC50 is less than 5.60.
As to “NCI-H630 (large intestine, adherent, top dose 20 µM)”, the AUC was 0.788 and the pIC50 is 5.02.
Consider “M14 (melanoma, adherent, top dose 2.5 µM)”, for which the AUC is 0.987 and the pIC50 is less than 5.60.
On the same counts, the results for “NCI-H1793 (lung adenocarcinoma, adherent, top dose 2.5 µM)” are 0.968 and less than 5.60.
In the case of “KYM-1 (rhabdomyosarcoma, adherent, top dose 2.5 µM)”, the AUC was 0.991 and the negative logarithm of the IC50 (pIC50) was less than 5.60.
In the same order, the values of “WM278 (melanoma, adherent, top dose 2.5 µM)” are 0.982 and less than 5.60.
In the same order, the values of “GI-ME-N (neuroblastoma, adherent, top dose 2.5 µM)” are 0.875 and less than 5.60.
In the same order, the values of “42-MG-BA (glioma, adherent, top dose 2.5 µM)” are 0.97 and less than 5.60.
Turning to “UMC-11 (lung carcinoid, adherent, top dose 2.5 µM)”, the AUC is 0.971 and the pIC50 was less than 5.60.
On the same counts, the results for “RL95-2 (endometrium, adherent, top dose 2.5 µM)” are 0.973 and less than 5.60.
In the same order, the values of “SW1990 (pancreas, adherent, top dose 2.5 µM)” are 0.947 and less than 5.60.
Regarding “SNG-M (endometrium, adherent, top dose 2.5 µM)”, the AUC amounted to 0.584 and the negative logarithm of the IC50 (pIC50) is 6.58.
On the same counts, the results for “SK-LU-1 (lung adenocarcinoma, adherent, top dose 2.5 µM)” are 0.884 and less than 5.60.
In the same order, the values of “SW948 (large intestine, adherent, top dose 20 µM)” are 0.764 and 4.97.
In the same order, the values of “D-423MG (glioma, adherent, top dose 2.5 µM)” are 0.878 and less than 5.60.
As for “MFE-296 (endometrium, adherent, top dose 2.5 µM)”, the AUC stood at 0.983 and the pIC50 is less than 5.60.
As to “NCI-H187 (small cell lung carcinoma, suspension, top dose 2.5 µM)”, the AUC was found to be 0.984 and the negative-log IC50 (pIC50) is less than 5.60.
In the same order, the values of HLE (liver, adherent, top dose 2.5 µM) are 0.919 and less than 5.60.
As for “NCI-H847 (small cell lung carcinoma, adherent, top dose 2.5 µM)”, the AUC was 0.719 and the pIC50 was 6.25.
In the same order, the values of “SNU-475 (liver, adherent, top dose 2.5 µM)” are 0.978 and less than 5.60.
Take “NUGC-4 (stomach, adherent, top dose 2.5 µM)”: the AUC came to 0.895 and the pIC50 was less than 5.60.
In the same order, the values of “SW684 (fibrosarcoma, adherent, top dose 2.5 µM)” are 0.98 and less than 5.60.
With “RPMI-2650 (head and neck, adherent, top dose 2.5 µM)”, the AUC was 0.928 and the negative-log IC50 (pIC50) was less than 5.60.
In the same order, the values of “YMB-1-E (breast, adherent, top dose 2.5 µM)” are 0.975 and less than 5.60.
Regarding “HCC1395 (breast, adherent, top dose 20 µM)”, the AUC was found to be 0.892 and the negative-log IC50 (pIC50) was less than 4.70.
Turning to “SAT (head and neck, adherent, top dose 2.5 µM)”, the AUC was 0.749 and the pIC50 was 5.91.
On the same counts, the results for “LAMA-84 (chronic myeloid leukaemia, suspension, top dose 2.5 µM)” are 0.705 and 6.22.
On the same counts, the results for “CCF-STTG1 (glioma, adherent, top dose 2.5 µM)” are 0.967 and less than 5.60.
For “GMS-10 (glioma, adherent, top dose 2.5 µM)”, the AUC turned out to be 0.988 and the pIC50 was less than 5.60.
Regarding “COR-L95 (small cell lung carcinoma, adherent, top dose 2.5 µM)”, the AUC was determined as 0.963 and the negative logarithm of the IC50 (pIC50) was less than 5.60.
On the same counts, the results for K5 (thyroid, adherent, top dose 2.5 µM) are 0.987 and less than 5.60.
On the same counts, the results for “HuO9 (osteosarcoma, adherent, top dose 2.5 µM)” are 0.93 and less than 5.60.
On the same counts, the results for “BT-474 (breast, adherent, top dose 2.5 µM)” are 0.424 and 7.03.
With “DoTc2-4510 (cervix, adherent, top dose 2.5 µM)”, the AUC amounted to 0.784 and the pIC50 is 6.00.
On the same counts, the results for “SCC-4 (head and neck, adherent, top dose 2.5 µM)” are 0.962 and less than 5.60.
For “PE/CA-PJ15 (head and neck, adherent, top dose 2.5 µM)”, the AUC amounted to 0.836 and the negative logarithm of the IC50 (pIC50) was 5.73.
On the same counts, the results for “D-392MG (glioma, adherent, top dose 2.5 µM)” are 0.952 and less than 5.60.

Usually pIC50 stands for the negative decadic logarithm of the IC50, by convention in mol/L.
